# In all, about 5,500 compounds went through this assay and about 2,000 (36%) were called active. Cut-off read from the data, not from the text of the source: active = normalized growth mostly below about 0.91 (no sharp cut-off); inconclusive = no clear call, values can overlap the other calls; inactive = mostly above about 0.92. The inconclusive results got no clear call from the source. The source holds several records for some structures; these can differ, active in one and inactive in another.
# Assay: chemical genetic growth profiling, strain panel (AID 1159580);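 note: tested at 20 µM; growth read once vehicle control cultures reached saturation at 30 °C; 1 = growth at the plate median or of vehicle wells; lower values mean less growth of the strain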
# Settings: S. cerevisiae deletion strains, growth OD
# [1] = locus YER002W, strain NOP16, hits give low values
# [2] = locus YNL197C, strain WHI3, hits give low values
smiles,measurement,setting,value
CC(=O)Oc1ccc(/C=C/c2cc(OC(C)=O)cc(OC(C)=O)c2)cc1,normalized growth,"locus YMR058W, strain fet3, hits give low values",inconclusive: 0.886 [sensitive]
CSc1ccc2c(c1)C(N1CCN(C)CC1)Cc1ccccc1S2 (stereo not drawn),normalized growth,"locus YLR371W, strain rom2, hits give low values",inconclusive: 0.905 [sensitive]
same,normalized growth,"locus YML016C, strain PPZ1, hits give low values",inconclusive: 0.919 [sensitive]
COc1ccc(-c2cc(=O)c3c(O)cc(O)c(-c4cc(-c5cc(=O)c6c(O)cc(O)cc6o5)ccc4OC)c3o2)cc1,normalized growth,"locus YGL086W, strain mad1, hits give low values",inconclusive: 1.07 [resistant]
COC(=O)c1csc2c(C(F)(F)F)cc(N3CCN(S(=O)(=O)c4ccc(C)cc4)CC3)nc12,normalized growth,"locus YNL153C, strain GIM3, hits give low values",inconclusive: 1.23 [resistant]
NC(Cc1ccc(Cl)cc1)C(=O)O (stereo not drawn),normalized growth,[1],inconclusive: 0.839 [sensitive]
same,normalized growth,[2],inconclusive: 0.888 [sensitive]
same,normalized growth,"locus YOR083W, strain WHI5 (second series), hits give low values",inconclusive: 0.557 [sensitive]
CN(C)CCCN1c2ccccc2Sc2ccccc21,normalized growth,[2],inconclusive: 0.832 [sensitive]
O=c1[nH]cnc2ccc(Br)cc12,normalized growth,"locus YAL013W, strain DEP1, hits give low values",inconclusive: 0.929 [sensitive]
O=c1[nH]c(-c2cc(Br)cs2)nc2ccc(Cl)cc12,normalized growth,"locus YGR078C, strain PAC10, hits give low values",inconclusive: 1.08 [resistant]
COC1C(O)C(O)C(O)[C@@H](O)C1O (stereo partly drawn),normalized growth,"locus YDL040C, strain nat1, hits give low values",inconclusive: 0.928 [sensitive]
C[C@]12CCC(=O)C=C1CC[C@@H]1[C@@H]2[C@@H](O)C[C@@]2(C)[C@H]1CC[C@]2(O)C(=O)CO,normalized growth,[2],inconclusive: 0.777 [sensitive]
COC(=O)[C@]1(C)CC[C@]2(C)CC[C@]3(C)C4=CC=C5C(=CC(=O)C(O)=C5C)[C@]4(C)CC[C@@]3(C)[C@@H]2C1,normalized growth,"locus YMR129W, hits give low values",inconclusive: 0.921 [sensitive]
COC(=O)Nc1nc2ccc(C(=O)c3ccccc3)cc2[nH]1,normalized growth,"locus YKL068W, hits give low values",inconclusive: 1.07 [resistant]
Cc1nn(C)c(C)c1[N+](=O)[O-],normalized growth,"locus YMR263W, strain SAP30, hits give low values",inconclusive: 0.892 [sensitive]
COc1ccc(/C=C/C(=O)O)cc1OC,normalized growth,"locus YLR418C, strain cdc73, hits give low values",inconclusive: 1.22 [resistant]
Fc1ccc(C(c2ccc(F)cc2)N2CCN(C/C=C/c3ccccc3)CC2)cc1,normalized growth,[1],inconclusive: 1.11 [resistant]
same,normalized growth,"locus YNL175C, strain NOP13, hits give low values",inconclusive: 1.17 [resistant]
same,normalized growth,"locus YNL224C, strain SQS1, hits give low values",inconclusive: 1.15 [resistant]
C[n+]1cc2c3c(ccc2c2ccc4cc5c(cc4c21)OCO5)OCO3,normalized growth,"locus YAL040C, strain CLN3, hits give low values",inconclusive: 0.58 [sensitive]
same,normalized growth,"locus YCL061C, strain MRC1 (second series), hits give low values",inconclusive: 0.528 [sensitive]
CC1(C)S[C@@H]2C(N3C(=O)[C@@H](c4ccccc4)NC3(C)C)C(=O)N2[C@H]1C(=O)O (stereo partly drawn),normalized growth,"locus YJR043C, strain POL32, hits give low values",inconclusive: 0.798 [sensitive]
